Legend:
[1] = Excipient compatibility of DCL by differential scanning calorimetry (DSC); details: 80% excipient to 20% drug
[2] = system: allergic bronchospasm; details: milligram by milligram basis; cited from earlier work

SMILES | DSC behavior, drug/excipient interaction ([1]; DCL dry blended with AVICEL microcrystalline cellulose) | DSC behavior, drug/excipient interaction ([1]; DCL dry blended with lactose (α-lactose monohydrate)) | Potency relative to terfenadine in the inhibition of allergic bronchospasm [2]
Clc1ccc2c(c1)CCc1cccnc1C2=C1CCNCC1 [DCL, 8-chloro-6,11-dihydro-11-(4-piperidylidene)-5H-benzo[5,6]cyclohepta[1,2-b]pyridine] | no interaction | active drug/excipient interaction | –
CCOC(=O)N1CCC(=C2c3ccc(Cl)cc3CCc3cccnc32)CC1 [Loratadine, loratadine] | – | – | four times more potent
